# Results reported in patent US8669247B2, “2,5-disubstituted arylsulfonamide CCR3 antagonists” (Axikin Pharmaceuticals, Inc., priority 2009, dated 2014).
compound,measurement,setting,value
"N#Cc1ccc(Sc2cc(Cl)ccc2Cl)c(S(=O)(=O)N2CCNCC2)c1 (as salt: hydrochloride) [Compound 76, 4-(2,5-Dichlorophenylthio)-3-(piperazin-1-ylsulfonyl)benzonitrile]",melting point,dihydrochloride salt,156 to 162 °C
same,melting point,free base,190 to 194 °C

# Where a name gives a salt, the structure may show the parent alone. Read-outs that look alike come from different tables or passages of the source. Some values that stand alone complete this part of the results.
